Experimental data taken from paper PMC5515408.
This is one part of the list. At the low end of the ranking the order means little.

The sequences below were run against MAX:MAX (p21) (UniProt P61244-2) (assay: protein-binding microarray (anti-MAX antibody)). Details: PBM: 15 mM Tris-HCl pH 7.5, 100 mM KCl, 0.075% NP40, 7.5 mM beta-mercaptoethanol, 375 ng/ul BSA, 8 ng/ul poly(dA-dT):(dA-dT), 550 ng complex, 60 min, room …; high values mean tight binding; double strand, one strand shown; sequences stand for … in CCGGC…TTAATAGCTAAGATTACTATATCGACG.

Sequence	binding signal (log2 normalized fluorescence)
TGAGTGAGCGTA	-0.515
TGTTCCGTGGTA	0.387
TGACAGCACGTA	1.16
TGACACTCTGTA	0.154
TGAGCAATGGTA	-0.491
TGAAGAAAGGTA	-0.473
TGACCGAACGTA	-0.486
TGAGTGTGTGTA	0.665
TGATCTCTCGTA	-0.941
TGAAAAGAAGTA	-0.248
TGACACGTGAAC	3.16
TGAAACTTGGTA	-0.705
AGACGCATGGTA	3.11
TGATTGGTGGTA	-0.596
TGATACGGAGTA	-0.967
TGAGCTTCGGTA	-1.1
TGATGGCATGTA	1.75
TGAACTTTTGTA	-1.09
TGAGATCTTGTA	-1.17
TCAGAGACGTTG	-0.698
TGACTCGAGCTA	-0.172
TGACTATTTGTA	-1.01
TGATTTAGCGTA	-1.11

Sequence	binding signal (log2 normalized fluorescence)
TGAAGCGTAGTA	-0.753
TCACACCTCGTA	2.28
TTAGACGTGGTA	1.04
TGAAACAGCGTA	-0.261
TGAAGGATCGTA	-0.663
TGATTCGACGTA	-0.8
TGAGGTGGCGTA	-0.248
TGAGCACCCGTA	0.168
TGACTGAGAGTA	-0.673
TGAATGGCCGTA	0.498
TGAGCACACGTA	1.46
TGATCACGCGTA	2.73
TGACACGTGCGC	3.16
TGAATATTGGTA	-0.963
TGACCTGGAGTA	-0.329
TGAAAATCGGTA	-1.16
TGAGCCACGGTA	0.429
TGATAGGTGGGA	-0.519
TGAGAGCCTGTA	-0.287
TGATCCTGCGTA	-0.57
TGAAGGAGAGTA	-0.816
TGAGGGAAGGTA	-0.096
TGACCAGAAGTA	-0.468

Sequence	binding signal (log2 normalized fluorescence)
TGACACTAAGTA	-0.152
TGATTGTAGGTA	-0.799
TGAACGAATGTA	-0.153
CGACACCTGTTA	2.63
TGAGAGAGCGTA	-0.75
TGATGACAGGTA	0.172
TGGAGCGTGGTA	2.72
TGATTACCAGTA	-0.743
TGAGCGGGGGTA	1.52
TTTCCCGTGGTA	1.92
TGACGAGAGGTA	-0.158
TGAACGAAAGTA	-0.654
TGACACGTGCTC	3.24
TGATCGGGCGTA	-1
TGATCTGTAGTA	-0.886
TTACACGTGGAA	3.37
TGAGCGGTAGTA	-0.714
TGACATCCCGTA	0.192
TGACCTTCCGTA	-0.7
TGAGACCTGGTA	-0.5
ATACACTTGGTA	1.54
TGAATCACGGTA	0.64
TACGACGTGGTA	2.57

Sequence	binding signal (log2 normalized fluorescence)
TGACCAATCGTA	-0.754
TGACACGACTTA	1.22
TGACCATTGGTA	-0.0632
TGATTATACGTA	-0.927
TGACCGATCGTA	-0.59
TGGCATGTGGTA	3.04
TGGCACGTGGTA	3.26
TGAAAAGGCGTA	-0.503
TGAGTTACGGTA	-0.516
TGATTTCGTGTA	-0.361
TGAAGACAGGTA	-0.186
TGAATCTCAGTA	-1.13
TGCCATGTGGTT	3.15
CGCGACGTGGTA	2.79
TGACTCAGAGTA	-0.668
TGGCACGTGCTA	3.25
TGACCTCTGGTA	-0.818
TGATGCTGCGTA	0.117
TGACTGAAAGTA	-0.626
TGATTTATAGTA	-1.19
TGACGTGCCGTA	1.03
TGAATAAACGTA	-0.637
TGACAACCGGTA	-0.183

Sequence	binding signal (log2 normalized fluorescence)
TGAAGTGTTGTA	-0.217
ACTTATAGATTT	-0.453
TGAATCCCGGTA	-1.15
TGAGGTCTCGTA	-0.936
TGATAGACAGTA	-0.945
TGAAGACTTGTA	-0.873
TGACAGAGTGTA	-0.154
TGAGTCCAAGTA	-1.14
TGATTCCAGGTA	-0.706
TGAATTTCTGTA	-1.02
TGAGCGATAGTA	-1
TGATGAGTGGTA	-0.0585
TGACGCGTGGTA	3
TGATGTCTCGTA	-0.00586
TGATCATGCGTA	2.71
TGAAAAGTGGTA	-0.645
TGACAGTTTGTA	-0.554
TGACCACAAGTA	1.12
TGAAGCAGGGTA	-0.0603
TGAGCTAAAGTA	-1.02
TGAATGTAGGTA	0.306
TGATTGGCTGTA	-0.902
TGACACGTATGA	1.54

Sequence	binding signal (log2 normalized fluorescence)
TGTCACGTGGAA	3.19
TGACTTAAAGTA	-0.586
TGAGACGATGTA	-0.696
TGACACGAGGCG	3.03
TGACCCCGAGTA	-0.23
TGAAAGTGCGTA	0.165
TGAATAGGCGTA	-1.15
TGATTCTCCGTA	-1.09
TGACACGTGTAA	3.24
TGACTTGGGGTA	-0.117
TGACACGTGATC	3.15
TGAGTGCCCGTA	0.375
TGAGTCAGGGTA	-0.467
TGAAGTAGGGTA	-0.682
TGAATGGCGGTA	0.7
TGACCTTCAGTA	-0.568
TGACCGAGCGTA	-0.45
TGACGCGTGCTA	3.17
TGAACATGAGTA	1.84
TGAAACACGGTA	0.808
TGATCTACGGTA	-0.711
TGACCGGTCGTA	-0.522
TGACAAGTTGTA	-0.304
